The sequences are guide strands of siRNAs; only the seed at positions 2 to 7 varies.

Series [1] relates to GL261. The experiment in a line: cell viability relative to siNT1 (ATP content); H4 human neuroglioma and GL261 mouse glioma; higher = less toxic. The conditions noted are these: siRNA concentration 25 nM; 96 h; mouse. The method, then:
(§1)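 Arrayed screen of all 4096 6mer seeds. Each seed sits at guide-strand positions 2-7 of a neutral 19mer siRNA backbone (siNT1-based, passenger strand 2'-O-methyl modified at positions 1-2 to block RISC loading, 3' DNA overhangs). The guide strand is built here as U + seed + ACAUGUAAACCA. Cells were reverse transfected in triplicate in 384-well plates (H4 at 10 nM, GL261 at 25 nM) with Lipofectamine RNAiMAX. Viability was read as ATP content (CellTiter-Glo) 96 h after transfection and normalised to siNT1 (%).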

The subject of series [2] is H4. Described as above. As to conditions: siRNA concentration 10 nM; 96 h; human. The procedure:
as §1
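Note: cells reverse transfected with siRNA duplexes via lipid reagent, ATP read by luminescence, triplicate wells, values scaled to mean viability with non-targeting control siNT1.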

What is called cell viability is a read-out of living cells in per cent, often relative to untreated cells. UACGGUGACAUGUAAACCA: the figures for the cell viability in series [1] and in series [2] were 52.7% and 94.3%, respectively.
Consider UACGGUUACAUGUAAACCA, for which the cell viability in series [1] amounted to 38.9%; in series [2], 68.4%.
Regarding UACGUAAACAUGUAAACCA, the cell viability was 74.3% in series [1] and 84.7% in series [2].
Taken in the same sequence, the figures for UACGUACACAUGUAAACCA were 62.4% and 72%.
Taken in the same sequence, the figures for UACGUAGACAUGUAAACCA were 60.3% and 99.3%.
Consider UACGUAUACAUGUAAACCA, for which the cell viability stood at 61.3% in series [1] and 91.2% in series [2].
Turning to UACGUCAACAUGUAAACCA, the cell viability in series [1] is 59%; in series [2] it was 80.4%.
As to UACGUCCACAUGUAAACCA, the cell viability was found to be 24.6% in series [1] and 48.8% in series [2].
Taken in the same sequence, the figures for UACGUCGACAUGUAAACCA were 65.7% and 70.9%.
On to UACGUCUACAUGUAAACCA, for which the values for the cell viability in series [1] and in series [2] were 52.1% and 64.8%, respectively.
Take UACGUGAACAUGUAAACCA: the figures for the cell viability in series [1] and in series [2] were 51.6% and 99.1%, respectively.
For UACGUGCACAUGUAAACCA, in that order: 48.8% and 57.7%.
Taken in the same sequence, the figures for UACGUGGACAUGUAAACCA were 58.8% and 73%.
Consider UACGUGUACAUGUAAACCA, for which the cell viability was found to be 50.3% in series [1] and 61.4% in series [2].
On to UACGUUAACAUGUAAACCA, for which the cell viability in series [1] worked out at 64.9%; in series [2] it was 84.7%.
In the case of UACGUUCACAUGUAAACCA, the cell viability in series [1] is 60.1%; in series [2] it was 77.7%.
For UACGUUGACAUGUAAACCA, in that order: 69.5% and 110%.
Taken in the same sequence, the figures for UACGUUUACAUGUAAACCA were 53.6% and 77.7%.
UACUAAAACAUGUAAACCA: the cell viability in series [1] amounted to 72.4%; in series [2] it was 98.1%.
For UACUAACACAUGUAAACCA, in that order: 52.2% and 78%.
As for UACUAAGACAUGUAAACCA, the cell viability in series [1] turned out to be 63.7%; in series [2], 108%.
For UACUAAUACAUGUAAACCA, in that order: 73.7% and 116%.
Taken in the same sequence, the figures for UACUACAACAUGUAAACCA were 70% and 91.3%.
Taken in the same sequence, the figures for UACUACCACAUGUAAACCA were 32.4% and 63.3%.
Consider UACUACGACAUGUAAACCA, for which the cell viability came out at 67% in series [1] and 69.1% in series [2].
Taken in the same sequence, the figures for UACUACUACAUGUAAACCA were 60.2% and 62%.
Taken in the same sequence, the figures for UACUAGAACAUGUAAACCA were 60.7% and 108%.
Take UACUAGCACAUGUAAACCA: the values for the cell viability in series [1] and in series [2] were 29% and 30.6%, respectively.
For UACUAGGACAUGUAAACCA, in that order: 62.7% and 75%.
UACUAGUACAUGUAAACCA: the results for the cell viability in series [1] and in series [2] were 54.5% and 67.9%, respectively.
For UACUAUAACAUGUAAACCA, in that order: 69.3% and 113%.
As for UACUAUCACAUGUAAACCA, the cell viability was 63.8% in series [1] and 63.6% in series [2].
Taken in the same sequence, the figures for UACUAUGACAUGUAAACCA were 63.1% and 102%.
On to UACUAUUACAUGUAAACCA, for which the cell viability in series [1] is 67.6%; in series [2], 69.7%.
Taken in the same sequence, the figures for UACUCAAACAUGUAAACCA were 52% and 100%.
Taken in the same sequence, the figures for UACUCACACAUGUAAACCA were 40.4% and 78.9%.

For the origin of these results see the supplement of paper PMC8948288.
